Laboratory results from paper PMC10668032.
The other results are listed elsewhere or left out. At the low end of the ranking, values are background and their order means little.

molecular target: SIX1 homeodomain (reference allele) (UniProt Q15475); experiment: universal protein binding microarray; conditions: Universal all-10-mer PBM (8x60K, AMADID 030236), 300 nM GST-tagged protein, Alexa Fluor 488 anti-GST; buffer, salt, pH and temperature not stated; high values mean tight binding; most listed sequences are background and not binding sites; double strand, one strand shown

| Sequence | binding signal [E-score] |
| --- | --- |
| GTGGTCCA | -0.091 |
| ACATGGGT | 0.0605 |
| ACAGACGT | -0.0908 |
| CACGTAAG | -0.0955 |
| ATTCTACG | 0.0699 |
| CTTCAATA | 0.0399 |
| ATTCGTTC | -0.169 |
| AGTATTGG | 0.204 |
| ACAAGCCA | -0.282 |
| AATCCTAC | 0.0174 |
| CTGACTTC | -0.105 |
| CTTATGCA | -0.00105 |
| AACGCTAA | -0.358 |
| GGTCAATA | 0.0794 |
| CGGGATTC | 0.0752 |
| AAACCACG | 0.0434 |
| GTTCCATA | -0.0388 |
| AGACTATA | 0.204 |
| GCACTCCA | -0.204 |
| TCATCAAA | -0.0525 |
| CGGACTAC | -0.0789 |
| ATATTGCA | 0.221 |
| ACAGATTG | 0.052 |
| GCATTCGC | -0.00992 |
| GGCTCGTA | 0.08 |

| Sequence | binding signal [E-score] |
| --- | --- |
| GAATGACC | -0.00573 |
| ATTGCCGG | -0.104 |
| AGCATTAG | -0.163 |
| CTTACTGA | 0.14 |
| CCAGCCAG | -0.246 |
| GCAATCAC | -0.0464 |
| AGTTTGAA | -0.208 |
| AAACAGCC | -0.203 |
| ACCCGTTA | -0.00991 |
| GCCATTGA | -0.015 |
| CTCGCGAA | -0.215 |
| AAGCCAGT | -0.111 |
| AGCTGTCG | -0.127 |
| ATGGACGA | -0.0832 |
| ATGCATGC | -0.00552 |
| CCTTCCAG | -0.0762 |
| CAATTAGG | 0.0942 |
| ATCTGCCC | 0.182 |
| GACAGCTA | -0.12 |
| GACAATCA | -0.0986 |
| AGGGGCAT | 0.0649 |
| CGAGGATC | 0.333 |
| CGCTTCTC | -0.014 |
| ATCTACCA | 0.206 |
| AGGCGGAT | 0.346 |

| Sequence | binding signal [E-score] |
| --- | --- |
| ACAAACAT | -0.0932 |
| AGTCTTAA | -0.201 |
| TCTAGTAA | -0.122 |
| AACGGCCC | -0.187 |
| GTCTCAGA | 0.0717 |
| ATGAGAGG | 0.0353 |
| AGGCGGCG | 0.0226 |
| CATTGGGG | 0.108 |
| AGATGGAG | 0.133 |
| GGATTTCA | -0.0304 |
| GTACTAAA | -0.0983 |
| GTTTCGAA | -0.0623 |
| AAGCAATT | -0.2 |
| CACATCTG | 0.132 |
| TACCGTAA | 0.0137 |
| AGTCCACT | -0.148 |
| CCGGCTAG | 0.0506 |
| GATAGTTA | 0.153 |
| AACCGTAA | -0.201 |
| ACTAGTGA | -0.0991 |
| ATTCGAGA | 0.0416 |
| AGATCCAG | 0.285 |
| CACTGACA | 0.00724 |
| CGCATAAA | -0.116 |
| ACGTTTAA | -0.0447 |

| Sequence | binding signal [E-score] |
| --- | --- |
| GAGTAATA | 0.204 |
| ATCTTGAA | 0.0101 |
| ACTCAATA | 0.0986 |
| CTTACAAC | -0.126 |
| CTATGCGC | 0.0176 |
| CCGGTTTC | -0.00851 |
| CTCGAACA | -0.2 |
| CATCAGAG | 0.0622 |
| CGAAAGCA | -0.122 |
| TAGTTGCA | -0.0447 |
| AGCAGCGG | -0.153 |
| CCTTACTC | 0.0586 |
| ATAAACAG | -0.107 |
| ACGCTTAA | -0.194 |
| CAGCCGCG | 0.144 |
| CTGACACA | 0.0138 |
| GTTCCCGA | -0.112 |
| GGTCCACA | -0.0594 |
| AAGGGTCC | -0.257 |
| AGTAAAGA | -0.146 |
| CCATTTAG | -0.0498 |
| AACCCAGA | 0.137 |
| TACCGCTA | 0.109 |
| TCAGCTGA | -0.217 |
| TAAATAGA | -0.129 |

| Sequence | binding signal [E-score] |
| --- | --- |
| ATCGAATC | 0.162 |
| ATAGAAGC | -0.0285 |
| ACGAAATA | -0.019 |
| AAGTTTTG | -0.122 |
| TATGTCAA | -0.0935 |
| AACATACC | 0.129 |
| CATTGGTC | -0.0422 |
| CAGTCGCA | -0.259 |
| CCCGTGCC | -0.0961 |
| GACTCCTA | -0.0596 |
| TAGATAGA | 0.114 |
| GAAATCCA | 0.0255 |
| TCTACTAA | -0.00144 |
| TCTAGCAA | -0.0831 |
| ATTGTAGA | 0.0879 |
| ACTGTCAC | -0.156 |
| CCAATAGG | 0.0713 |
| ATTCGATC | 0.18 |
| GAGCAAGA | -0.114 |
| TCTATTAA | -0.104 |
| CGGGCGGC | -0.0216 |
| AGAACTCC | -0.0389 |
| AGGAACCC | -0.0257 |
| AGCTCCTA | -0.154 |
| ACTGACAC | 0.335 |

| Sequence | binding signal [E-score] |
| --- | --- |
| CCGGGTTC | 0.168 |
| GATCTCGC | 0.254 |
| GTGAGTAA | -0.0761 |
| AGATCCGC | 0.333 |
| AGTCCAAT | -0.212 |
| AGGCGACT | -0.086 |
| AGGAATTA | -0.109 |
| ATACGACG | 0.191 |
| CGATTCAG | 0.0439 |
| ACCCAGGT | 0.0225 |
| ATATCTGA | 0.356 |
| ATCGACCA | -0.00571 |
| ACCTCAGG | -0.123 |
| ATCTACTG | 0.22 |
| CCTAGGTC | -0.0694 |
| GATGTTCC | -0.121 |
| GTGCTAGA | -0.142 |
| AAGCTCGG | -0.0477 |
| AATCAAAA | -0.0282 |
| TAGTACTA | -0.121 |
| ACCGATGG | -0.0165 |
| CACTCCCG | 0.132 |
| CAAGTTCG | -0.233 |
| ATTAACCG | 0.0919 |
| CAGCATCG | -0.164 |

| Sequence | binding signal [E-score] |
| --- | --- |
| CCTCGAGA | 0.0231 |
| ACTGCTAC | -0.127 |
| GAGCCTCC | -0.0855 |
| ATTATAAA | -0.185 |
| CTCTGATC | 0.145 |
| GGTACAAA | -0.282 |
| CGCACTTC | -0.155 |
| TACACCCA | 0.341 |
| TGAATCAA | -0.0801 |
| GCCATACC | 0.0482 |
| ACAGTCTG | -0.217 |
| AATTTGAC | -0.161 |
| TTTCAAAA | -0.181 |
| GGGTCTAA | 0.142 |
| AGTGGGCG | -0.0754 |
| CACGTAGA | -0.0094 |
| ATATATCC | 0.438 |
| ATCGTGAG | 0.26 |
| GCTACTCA | -0.019 |
| CAATATAG | 0.132 |
| ATATGCCA | 0.339 |
| CGAGCGCA | -0.022 |
| CGCCGCTA | -0.198 |
| ACCATCCT | -0.00911 |
| CGATGCTA | 0.0117 |

| Sequence | binding signal [E-score] |
| --- | --- |
| AAAATGTT | -0.291 |
| ATGAAAAG | -0.104 |
| CCTCGATA | 0.335 |
| AGCACGAA | -0.0993 |
| CATCAAAC | -0.131 |
| ATTATTAA | 0.00962 |
| AGGATCCC | 0.379 |
| ATAGAGCG | 0.0303 |
| AGCCGACC | -0.106 |
| AGACACTC | 0.0261 |
| ACCGAGGC | -0.12 |
| ATTTCCCG | 0.0401 |
| CCATGTCC | -0.00154 |
| ATACGCGC | 0.256 |
| GGATTCGA | 0.212 |
| AGCAAAAT | -0.0421 |
| CAACCATC | -0.0818 |
| ATCCGAAC | 0.278 |
| ACCCGACC | 0.0804 |
| CGCTTTTA | -0.201 |
| CGAAAGCG | -0.0807 |
| ATACACCA | 0.389 |
| CTATATGC | 0.105 |
| CATGCAAC | -0.0801 |
| CGACAAAG | -0.146 |

| Sequence | binding signal [E-score] |
| --- | --- |
| AAAACTTA | -0.225 |
| CGGCGATC | 0.302 |
| CACGTGGC | -0.197 |
| ACACCAAC | 0.224 |
| GTATGCAA | 0.0818 |
| ACAGCCTC | -0.205 |
| AGACATCC | -0.0495 |
| ACGGCCTG | -0.0499 |
| ACACGGAT | 0.401 |
| CAGCCGAC | 0.0189 |
| AGGTAGAT | 0.262 |
| ATTATATC | 0.329 |
| AACTTCGT | -0.23 |
| AGTTCCCA | -0.138 |
| AACAGACT | -0.323 |
| TAACGCAA | 0.00235 |
| GCATTCCC | -0.182 |
| CCCGTTGC | -0.188 |
| ATAAAGGC | -0.00853 |
